Measured values: paper PMC13451150
Results are given in words; binding and its absence hold for the method and conditions named. For some assays here: In cells and extracts the contact can be indirect. Some binding calls cover weakened binding; strength is not graded here.

Chains of the proteins cited; added tags and fusions are not shown. Residues count along the entry.
UniProt Q9UGP4: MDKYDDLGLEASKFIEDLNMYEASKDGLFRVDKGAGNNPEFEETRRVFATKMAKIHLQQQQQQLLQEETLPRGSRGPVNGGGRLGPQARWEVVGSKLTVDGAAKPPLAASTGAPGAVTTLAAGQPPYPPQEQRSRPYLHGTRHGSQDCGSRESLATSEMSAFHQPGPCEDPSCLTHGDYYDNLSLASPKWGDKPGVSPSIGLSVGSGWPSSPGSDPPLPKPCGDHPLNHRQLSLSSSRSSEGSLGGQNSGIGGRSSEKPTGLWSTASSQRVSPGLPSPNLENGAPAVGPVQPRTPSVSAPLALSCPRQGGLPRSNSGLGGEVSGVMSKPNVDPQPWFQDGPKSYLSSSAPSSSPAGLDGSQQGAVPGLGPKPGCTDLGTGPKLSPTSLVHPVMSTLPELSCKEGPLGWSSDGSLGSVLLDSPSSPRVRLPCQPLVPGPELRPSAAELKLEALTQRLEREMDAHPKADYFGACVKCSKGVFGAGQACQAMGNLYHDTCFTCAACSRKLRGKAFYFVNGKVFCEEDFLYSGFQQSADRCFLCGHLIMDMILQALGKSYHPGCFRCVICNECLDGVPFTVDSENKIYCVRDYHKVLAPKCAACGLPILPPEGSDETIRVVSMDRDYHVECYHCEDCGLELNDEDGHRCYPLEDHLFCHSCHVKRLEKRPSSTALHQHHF
UniProt Q9NZQ7, residues 19-290: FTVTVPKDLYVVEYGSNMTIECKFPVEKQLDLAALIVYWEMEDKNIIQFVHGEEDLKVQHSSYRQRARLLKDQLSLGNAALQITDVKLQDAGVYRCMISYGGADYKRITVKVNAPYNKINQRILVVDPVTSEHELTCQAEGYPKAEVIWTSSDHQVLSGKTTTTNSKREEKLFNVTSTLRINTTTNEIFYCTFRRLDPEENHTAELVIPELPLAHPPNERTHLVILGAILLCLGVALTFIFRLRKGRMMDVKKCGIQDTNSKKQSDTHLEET
UniProt Q9Y4X5: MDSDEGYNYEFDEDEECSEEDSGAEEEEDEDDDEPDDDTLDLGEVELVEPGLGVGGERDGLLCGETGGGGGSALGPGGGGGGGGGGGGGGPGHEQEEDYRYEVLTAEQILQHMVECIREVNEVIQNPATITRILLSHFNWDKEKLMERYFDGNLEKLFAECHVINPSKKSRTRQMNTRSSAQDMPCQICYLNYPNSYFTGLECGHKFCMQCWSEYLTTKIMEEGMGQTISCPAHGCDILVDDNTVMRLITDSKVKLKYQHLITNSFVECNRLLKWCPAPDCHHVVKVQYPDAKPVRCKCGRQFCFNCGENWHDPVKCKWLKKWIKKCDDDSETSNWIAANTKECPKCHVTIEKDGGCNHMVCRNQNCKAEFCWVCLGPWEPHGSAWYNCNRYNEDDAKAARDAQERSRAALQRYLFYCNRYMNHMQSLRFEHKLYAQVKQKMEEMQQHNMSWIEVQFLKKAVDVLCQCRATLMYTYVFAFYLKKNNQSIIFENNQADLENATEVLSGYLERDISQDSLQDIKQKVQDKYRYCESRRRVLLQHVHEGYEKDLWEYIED
UniProt Q9Y297: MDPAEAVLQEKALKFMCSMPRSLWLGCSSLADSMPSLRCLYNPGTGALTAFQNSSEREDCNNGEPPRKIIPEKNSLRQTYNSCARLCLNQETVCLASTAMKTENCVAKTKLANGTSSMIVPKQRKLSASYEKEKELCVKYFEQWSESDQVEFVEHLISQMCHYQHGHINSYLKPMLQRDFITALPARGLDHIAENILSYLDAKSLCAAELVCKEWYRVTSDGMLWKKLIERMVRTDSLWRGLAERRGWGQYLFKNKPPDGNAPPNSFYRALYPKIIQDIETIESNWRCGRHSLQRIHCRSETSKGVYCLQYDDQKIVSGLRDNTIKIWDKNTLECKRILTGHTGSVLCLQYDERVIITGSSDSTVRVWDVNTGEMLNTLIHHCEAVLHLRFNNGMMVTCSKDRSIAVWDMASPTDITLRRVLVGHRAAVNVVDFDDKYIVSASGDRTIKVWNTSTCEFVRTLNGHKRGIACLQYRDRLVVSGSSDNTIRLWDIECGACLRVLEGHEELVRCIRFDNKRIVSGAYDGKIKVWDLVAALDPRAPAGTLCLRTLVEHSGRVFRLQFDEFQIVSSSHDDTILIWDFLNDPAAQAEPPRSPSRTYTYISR

Key:
[1] = target: GST-LIMD1 (UniProt Q9UGP4); test: pull-down; GST-LIMD1, GST-VO or beads alone on glutathione Sepharose; purified 6His-ARIH1 added; PBS + 0.1% Triton X-100 + 5% glycerol, overnight at 4°C; eluted with 50 mM reduced glutathione; immunoblots of GST and 6His-tag; both purified
[2] = target: LIMD1 (human (endogenous in A549)) (UniProt Q9UGP4); test: co-IP; endogenous LIMD1 immunoprecipitated from A549 Cas9 and LIMD1-/- C5 lysates; inputs and elutions immunoblotted
[3] = target: PD-L1 (human (endogenous in SAEC)) (UniProt Q9NZQ7); test: proximity ligation; SAEC transfected with Scr or LIMD1 siRNA, 0.5 ng/ml IFNγ for 24 h, fixed and permeabilised; mouse anti-PD-L1 and rabbit anti-ARIH1; NaveniFlex Cell MR kit; foci per cell counted
[4] = target: HA-PD-L1 (UniProt Q9NZQ7); test: co-IP; HA-PD-L1 transfected into A549 Cas9 and LIMD1-/- cells; NP-40 lysis buffer; antibody overnight at 4°C, Protein G Mag Sepharose beads; immunoblot

Substance | binding [1] | binding [2] | binding [3] | binding [4]
6His-ARIH1 (from UniProt Q9Y4X5 1-557) (enzyme) | binds | – | – | –
ARIH1 (from UniProt Q9Y4X5 1-557) (enzyme) | – | binds | binds | binds
β-TrCP (from UniProt Q9Y297 1-605) (enzyme) | – | no binding | – | –
